From the supplement of paper PMC10126150
Values marked as one replicate rest on one cluster of the flow cell; about a third of the high ones do not repeat.
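Also: ATP exposure 15 min at 22 °C before imaging.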

Each sequence was assayed on ATP (assay: switch fluorescence ratio, 500 uM ATP over buffer (Cy3 cluster intensity, sum of 5 cycles each) (fold (ratio)); higher = stronger signal-on switching upon ATP binding; sequences stand for … in TCGTCGGCAGCGTCAGATGTGTATAAGAGACAGTTTTTTTTTTTTTTTTTTTTTTTTT…TC). Conditions: aptamer strand: ATP DNA aptamer (quencher-CACCTGGGGGAGTATTGCGGAGGAAGG + anchor), 100 nM annealed; ATP concentration: 500 uM; one replicate.
Summary of the method: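 Imaging in selection buffer was followed by imaging after 15 min with 500 uM ATP at 22 °C, for Cy3-labelled switching-strand clusters annealed to 100 nM quencher-labelled ATP aptamer on a modified Illumina MiSeq flow-cell. Five of these buffer/ATP cycles ran, separated by NaOH stripping and re-annealing. The fluorescence ratio per cluster is summed target-cycle over summed buffer-cycle Cy3 intensity, averaged per switch-domain sequence; clusters outside 100-1000 RFU were removed.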
With TATTGGGAG the switch fluorescence ratio was 1.05.
For GGCTCCAACC, the switch fluorescence ratio was 0.975.
With TGTATGTTTC the switch fluorescence ratio was 0.961.
In the case of CTAACCGGAA, the switch fluorescence ratio is reported as 1.57.
TATCAAAACG gave a switch fluorescence ratio of 1.04.
For AGTTGAGAAG, the switch fluorescence ratio was 0.982.
AGTAGGTAGC gave a switch fluorescence ratio of 0.984.
GATACAGTTT gave a switch fluorescence ratio of 1.01.
For CCGGGGGGC, the switch fluorescence ratio was 1.12.
For GATTAAGTAA, the switch fluorescence ratio was 0.975.
With CCCGAGGAG the switch fluorescence ratio was 1.09.
With ACAGAAGGAG the switch fluorescence ratio was 0.986.
GTGGTCGG gave a switch fluorescence ratio of 1.03.
For CGTGTACGCG, the switch fluorescence ratio was 0.979.
For GCGCTATAAA, the switch fluorescence ratio was 0.996.
TATTTTAGCA gave a switch fluorescence ratio of 1.04.
In the case of TGAAATCTAA, the switch fluorescence ratio is reported as 1.
For AGCCTGGTTA, the switch fluorescence ratio was 0.998.
For GACAGTTAGT, the switch fluorescence ratio was 1.06.
With CGTCCCGGGG the switch fluorescence ratio was 1.06.
In the case of AGTCGCTTAG, the switch fluorescence ratio is reported as 1.01.
CCTTAAGTTG gave a switch fluorescence ratio of 1.04.
With GAGAAATGTA the switch fluorescence ratio was 0.955.
TCTTTGTGGC showed a switch fluorescence ratio of 1.04.
GGCGATAGGC was tested, and the switch fluorescence ratio was 1.01.
In the case of CGCACGCTA, the switch fluorescence ratio is reported as 1.61.
With CATTGAGGCT the switch fluorescence ratio was 0.989.
ATTACAGGGA gave a switch fluorescence ratio of 1.
For TCCATCGTGG, the switch fluorescence ratio was 1.01.
With AGGCGGCGCA the switch fluorescence ratio was 0.967.
Work on ACAGGTTTG yielded a switch fluorescence ratio of 1.04.
With ATTTGACCAG the switch fluorescence ratio was 1.01.
Sequence CTAGAAGATG has a switch fluorescence ratio of 1.01.
Sequence CATTTCAGTT has a switch fluorescence ratio of 0.993.
Work on CCCATGTGGA yielded a switch fluorescence ratio of 1.03.
ATCCCCGGGT gave a switch fluorescence ratio of 1.38.
With CGTTGCTGTT the switch fluorescence ratio was 0.957.
In the case of AAGTACATT, the switch fluorescence ratio is reported as 1.27.
CGGTCTATTT was tested, and the switch fluorescence ratio was 1.03.
TCTTATAACT was tested, and the switch fluorescence ratio was 1.02.
Work on AGAGAAGCAC yielded a switch fluorescence ratio of 1.1.
For GTCGGATGAT, the switch fluorescence ratio was 0.989.
TGACTAAG was tested, and the switch fluorescence ratio was 1.04.
For AGTATACGA, the switch fluorescence ratio was 1.01.
With GATACACTCA the switch fluorescence ratio was 1.02.
For GTTACCGTTC, the switch fluorescence ratio was 1.06.
Work on GTACTGCTCT yielded a switch fluorescence ratio of 1.03.
Sequence CAGACGGGAA has a switch fluorescence ratio of 1.15.
Work on GTATGAGCTC yielded a switch fluorescence ratio of 0.999.
In the case of GTAGACGGGA, the switch fluorescence ratio is reported as 0.989.
Work on TTTGGCAGTG yielded a switch fluorescence ratio of 0.963.
CGCAGACGGG gave a switch fluorescence ratio of 1.15.
TTTAATGTTA was tested, and the switch fluorescence ratio was 0.948.
In the case of TGGAACTACC, the switch fluorescence ratio is reported as 1.12.
CCTAATCCGA was tested, and the switch fluorescence ratio was 1.09.
In the case of GTTACGCATG, the switch fluorescence ratio is reported as 1.01.
In the case of GGAAGCGAC, the switch fluorescence ratio is reported as 1.07.
ACGAATCGGT gave a switch fluorescence ratio of 0.989.
GTAGAAACTT was tested, and the switch fluorescence ratio was 1.08.
CCCGTCGGAC was tested, and the switch fluorescence ratio was 1.61.
Sequence AGTGCTCGGG has a switch fluorescence ratio of 0.98.
CGACTCGCAT showed a switch fluorescence ratio of 3.3.
In the case of CTAGTTTTAC, the switch fluorescence ratio is reported as 1.03.
Work on GTTGCCGGCA yielded a switch fluorescence ratio of 0.981.
With ATTCTCAGGG the switch fluorescence ratio was 1.05.
CAACGCGAGT was tested, and the switch fluorescence ratio was 1.27.
For GACATAGCAG, the switch fluorescence ratio was 1.21.
Sequence TAGCTTCCCT has a switch fluorescence ratio of 1.06.
GTTGTTCATT showed a switch fluorescence ratio of 0.98.
Sequence TATACTAATA has a switch fluorescence ratio of 0.998.
Sequence ATCTATGCCG has a switch fluorescence ratio of 1.06.
Work on TTTGATCTAG yielded a switch fluorescence ratio of 1.03.
Sequence TATCTTGAGA has a switch fluorescence ratio of 0.971.
TTGAATTAG was tested, and the switch fluorescence ratio was 0.956.
GTGACAGGCG was tested, and the switch fluorescence ratio was 1.
GGTATGGAAG was tested, and the switch fluorescence ratio was 0.99.
Sequence TTTTTATAGA has a switch fluorescence ratio of 1.01.
ATGTTTACG showed a switch fluorescence ratio of 1.03.
Sequence CGAATATTGC has a switch fluorescence ratio of 1.09.
Work on ATCCCAGGCC yielded a switch fluorescence ratio of 1.01.
For GCTCTATACC, the switch fluorescence ratio was 1.06.
CGGAGAGGAC showed a switch fluorescence ratio of 1.09.
In the case of AGTCTACTGT, the switch fluorescence ratio is reported as 1.02.
With ACGTATTACT the switch fluorescence ratio was 1.36.
For TCTGTATGG, the switch fluorescence ratio was 1.03.
Work on GTTTATCAGC yielded a switch fluorescence ratio of 1.03.
With AGTCCGGTAA the switch fluorescence ratio was 1.16.
With GGGAATGTAC the switch fluorescence ratio was 1.11.
GGTTGTACA showed a switch fluorescence ratio of 0.971.
GATGCTGGGC showed a switch fluorescence ratio of 0.973.
Work on TACTTCGGTC yielded a switch fluorescence ratio of 1.04.
Work on TAATTGGCTG yielded a switch fluorescence ratio of 1.03.
Work on GACGTAGTGT yielded a switch fluorescence ratio of 0.99.
ACGTCCCATC was tested, and the switch fluorescence ratio was 1.11.
GCTCCGATTA was tested, and the switch fluorescence ratio was 3.67.
TAGGATAGAG was tested, and the switch fluorescence ratio was 0.983.
In the case of ACCCTCGACA, the switch fluorescence ratio is reported as 1.11.
AATGATATAT was tested, and the switch fluorescence ratio was 0.982.
AATCTCTTGC showed a switch fluorescence ratio of 1.01.
TGGACCAGAA gave a switch fluorescence ratio of 0.996.
